No constants are given. Whether binding was seen depends on the method and setting. In cells and extracts the contact can be indirect. Some entries that bind do so weakly or less than the wild type. Tags and fused reporters may be left off the sequences shown.
Legend:
FLAG-C-MDA5 = biological target: T1, FLAG-C-MDA5 (UniProt Q9BYX4); assay: co-IP; Huh7 cells co-transfected with FLAG-N-MDA5 or FLAG-C-MDA5 and myc-tagged 14-3-3 isoforms; anti-FLAG immunoprecipitation of lysates, immunoblot
T1 sequence: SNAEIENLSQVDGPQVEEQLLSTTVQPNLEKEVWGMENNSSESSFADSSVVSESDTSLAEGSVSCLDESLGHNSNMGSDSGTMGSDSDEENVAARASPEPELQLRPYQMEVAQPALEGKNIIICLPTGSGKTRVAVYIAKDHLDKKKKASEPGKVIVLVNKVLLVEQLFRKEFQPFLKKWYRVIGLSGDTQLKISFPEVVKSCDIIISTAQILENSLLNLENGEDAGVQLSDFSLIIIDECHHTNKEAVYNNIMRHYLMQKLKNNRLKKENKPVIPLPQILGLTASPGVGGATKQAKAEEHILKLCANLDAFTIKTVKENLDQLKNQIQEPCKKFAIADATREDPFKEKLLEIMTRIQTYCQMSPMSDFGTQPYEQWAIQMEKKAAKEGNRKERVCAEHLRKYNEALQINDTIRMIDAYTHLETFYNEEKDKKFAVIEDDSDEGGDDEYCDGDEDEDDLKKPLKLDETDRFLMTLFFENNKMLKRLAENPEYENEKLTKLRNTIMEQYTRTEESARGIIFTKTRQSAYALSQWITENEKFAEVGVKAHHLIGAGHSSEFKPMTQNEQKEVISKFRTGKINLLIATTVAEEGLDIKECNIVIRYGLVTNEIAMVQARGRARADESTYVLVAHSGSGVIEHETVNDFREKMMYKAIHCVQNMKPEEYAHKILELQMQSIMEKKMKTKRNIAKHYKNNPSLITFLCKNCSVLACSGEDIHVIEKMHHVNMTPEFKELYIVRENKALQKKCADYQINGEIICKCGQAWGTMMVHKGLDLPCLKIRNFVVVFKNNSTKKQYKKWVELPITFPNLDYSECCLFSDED

Protein sequences, listed by entry. Tags and fused reporters are not part of them.
UniProt P63104: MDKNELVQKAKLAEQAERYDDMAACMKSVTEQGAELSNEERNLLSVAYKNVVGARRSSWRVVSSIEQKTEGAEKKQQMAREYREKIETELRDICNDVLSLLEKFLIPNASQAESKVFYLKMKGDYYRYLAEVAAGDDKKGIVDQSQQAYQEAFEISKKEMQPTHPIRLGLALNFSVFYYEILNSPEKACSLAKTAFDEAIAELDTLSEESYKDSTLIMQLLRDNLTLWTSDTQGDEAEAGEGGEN

FLAG-N-MDA5 = biological target: T2, FLAG-N-MDA5 (UniProt Q9BYX4); assay: as above
T2 sequence: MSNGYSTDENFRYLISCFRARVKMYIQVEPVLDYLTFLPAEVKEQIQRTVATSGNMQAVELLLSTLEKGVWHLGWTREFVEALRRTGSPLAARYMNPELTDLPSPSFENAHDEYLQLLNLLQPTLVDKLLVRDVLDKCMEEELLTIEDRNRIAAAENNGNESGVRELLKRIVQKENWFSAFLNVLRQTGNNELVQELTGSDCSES

binding (FLAG-C-MDA5): no binding
binding (FLAG-N-MDA5): binds weakly
Substance: myc-tagged 14-3-3ζ (from UniProt P63104 1-245)

— PMC6386420
